# PubChem BioAssay AID624296 (National Center for Advancing Translational Sciences (NCATS), 2012)
# In all, about 350,000 compounds went through this assay and about 9,900 (2.8%) were called active. Inconclusive means that the source gave no clear call. Such entries were picked first, then a sample of the others. Calls follow the shape of the dose curve; as a rule, active = well fitted activation curve with a large enough effect; inconclusive = small, poorly fitted or top-dose-only effect; inactive = no such curve, though single readings can be large or run the other way. Potencies of inconclusive entries are left out as doubtful fits.
# Assay: A quantitative high throughput screen for small molecules that induce DNA re-replication in MCF 10a normal breast cells. Also: nearly all actives have a fitted effect of over 50% in size. As to activity, positive = re-replication: % of control where 0% means no effect.
# Details: MCF 10A DNA re-replication, Hoechst nuclear intensity, 48 h; activity, positive = re-replication: at 46.1 µM (top of the series)
# Potency is read from the fitted curve at half-maximal effect; tags tell the direction and shape of the fitted curve.
Compound,Potency,"activity, positive = re-replication"
O=C(NCc1cccc(Cl)c1)C1CCC(=O)N(CC2CCCCC2)C1 (configuration not stated),"inconclusive [activator, single point]",–
COc1ccc(C2CC(c3c(-c4ccccc4)c4cc(Cl)ccc4[nH]c3=O)=NN2S(C)(=O)=O)cc1 (configuration not stated),"inconclusive [activator, single point]",–
O=C(c1c(O)c2ccccc2oc1=O)C1CCC1,"inconclusive [activator, single point]",–
COc1cnc(-c2ccccn2)nc1Oc1c(C)cccc1C,"inconclusive [activator, single point]",–
Cc1cc(C)cc(C(=O)/C=C2\NC(=O)CS2)c1,"inconclusive [activator, partial curve, poor fit]",–
Cc1ccc(S(=O)(=O)Nc2ccc(C(=O)OCC(=O)N(CCC#N)c3ccccc3)cc2)cc1C,–,inactive: 0.509%
Cc1ccc(C(=O)C(c2ccccc2)N2Cc3ccccc3C2=N)cc1 (configuration not stated),active: 20.6 µM,–
Cn1nnnc1Sc1ncnc2scc(-c3cccc(S(C)(=O)=O)c3)c12,active: 4.61 µM,–
C=CCOc1ccc(C(=O)n2cc(C(=O)OC)c3ccccc32)cc1,"inconclusive [activator, partial curve, poor fit]",–
CC1(S(=O)(=O)O)CC(=O)c2ccccc2C1=O (configuration not stated),"inconclusive [activator, single point]",–
COc1cccc(C=CC(=O)C=CC=Cc2ccccc2)c1,active: 16.4 µM,–
COC(=O)c1c(C)[nH]c(C(=O)/C=C/c2ccc(C)cc2)c1C,"inconclusive [activator, partial curve, poor fit]",–
O=C(Nc1nc2c(s1)C(=O)CCC2)c1ccccc1,"inconclusive [activator, full curve, poor fit]",–
COc1cc(C(c2c(C)[nH][nH]c2=O)c2c(C)[nH][nH]c2=O)ccc1OC(C)C,"inconclusive [activator, full curve, poor fit]",–
CN(C)c1ccc(/C=c2\sc3n(c2=O)CCCN=3)cc1,"inconclusive [activator, single point]",–
CC(C)OC(=O)c1cc2c(ccn2C)n1CC(=O)N(Cc1ccccc1)c1ccc(F)cc1,active: 6.51 µM,–
CCC(C)c1c(O)nc(SCC(=O)c2ccccc2)[nH]c1=O (configuration not stated),"inconclusive [activator, single point]",–
CCOc1ccc(-c2nnn(CC(=O)c3cc(OC)ccc3OC)n2)cc1,"inconclusive [activator, partial curve, poor fit]",–
CCN(CC)S(=O)(=O)c1ccc2c(c1)nc(CCC(=O)Nc1ccccc1Cc1ccccc1)n2CC,–,inactive: 21.9%
CCOc1ccccc1NC(=O)Cn1c(=O)c(OCC)nc2cnccc21,"inconclusive [activator, single point]",–
COC(=O)CC(=O)CSc1nc(C)cc(C)c1C#N,"inconclusive [activator, single point]",–
CC(C)Sc1oc(-c2ccco2)nc1S(=O)(=O)c1ccc(F)cc1,"inconclusive [activator, partial curve, poor fit]",–
O=C(NCc1cccc(C(F)(F)F)c1)N1CCN(C(=O)c2ccccc2)CC1,–,inactive: -4.11%

Compound,Potency,"activity, positive = re-replication"
Cn1cc(CN2CCC(CO)(CCCc3ccccc3)CC2)c(-c2ccccc2)n1,"inconclusive [activator, partial curve, poor fit]",–
CC(C)n1c(SCC(=O)Nc2nc3c(s2)CCCC3)nc2c1c(=O)n(C)c(=O)n2C,"inconclusive [activator, single point]",–
CCOc1ccccc1N1CCN(CC(=O)Nc2ncc(C)s2)CC1,"inconclusive [activator, single point]",–
CCCOc1cccc(NC(=O)OC2CCN(C)CC2)c1,"inconclusive [activator, single point]",–
Cc1oncc1-c1csc(-c2ccccc2Cl)n1,–,inactive: -4.06%
CCN(CC)c1nc2ccccc2[nH]1,"inconclusive [activator, partial curve, poor fit]",–
CCOC(=O)c1sc(NC(=O)Cn2nnc3sc4c(c3c2=O)CCC(C(C)(C)C)C4)nc1C (configuration not stated),"inconclusive [activator, single point]",–
O=C(CCN1CCC2CCC(C2)C1)c1ccccc1 (configuration not stated),"inconclusive [activator, single point]",–
Cc1ccc(S(=O)(=O)N2CCOCC2)cc1NC(=O)CNCc1ccccc1Cl,"inconclusive [activator, single point]",–
CC(=O)OCC1=C(C(=O)O)N2C(=O)C(NC(=O)c3ccc(COc4ccc(Cl)cc4)o3)C2SC1 (configuration not stated),–,inactive: 23.4%
CC(=O)NC(c1ccc(C(C)C)cc1)c1ccc2cccnc2c1O (configuration not stated),"inconclusive [activator, partial curve]",–
CS(=O)(=O)c1nc([N+](=O)[O-])nn1CCCc1ccccc1,active: 4.61 µM,–
O=C(N/N=C/c1cn(-c2ccccc2)nc1-c1cc2ccccc2o1)c1ccncc1,"inconclusive [activator, full curve]",–
CN(CC(=O)Nc1c(Cl)cccc1Cl)C(=O)c1cc(-c2cccs2)nn1-c1ccccc1,"inconclusive [activator, single point]",–
O=C(Nc1ccc2c(c1)CCC2)c1cc(S(=O)(=O)Nc2ccc(F)cc2)c(Cl)cc1Cl,"inconclusive [activator, partial curve]",–
CC[C@H](C)[C@H](NC(=O)c1ccccc1)C(=O)NC(CC(=O)O)c1ccc(F)cc1 (some centres not stated),"inconclusive [activator, single point]",–
CCOC(=O)C(C(=O)OCC)C(c1ccccc1)N1CCN(c2ccccc2)CC1 (configuration not stated),"inconclusive [activator, single point]",–
COc1cc(-c2cc[n+](C)cc2)ccc1O,–,inconclusive: -18.5% [activator]
O=[N+]([O-])c1ccc2nc(SCc3ccccc3Cl)sc2c1,active: 13 µM,–
COc1cc2ccc(=O)oc2cc1O,"inconclusive [activator, single point]",–
CCOC(=O)c1cc(CC)sc1NC(=O)CN1C(=O)C(=O)N(CC(C)C)C1=O,"inconclusive [activator, single point]",–
CN1CCN(C(=O)c2ccc(N(C)S(=O)(=O)c3cccs3)cc2)CC1,"inconclusive [activator, single point]",–
Cc1ccc(NC(=O)c2sc3nc(C)cc(C)c3c2N)cc1,–,inactive: -4.77%

Compound,Potency,"activity, positive = re-replication"
Cc1cc(/C=N\NC(=O)COc2cccc3cccnc23)c(C)n1-c1ccc(Br)cc1,"inconclusive [activator, single point]",–
CCCCn1c(N)c(N(CC(C)C)C(=O)c2ccc(N3C(=O)CCC3=O)cc2)c(=O)[nH]c1=O,–,inactive: -2.62%
CC(=O)Oc1ccccc1C(=O)Nc1ccccc1,"inconclusive [activator, full curve, poor fit]",–
CC1CN(N=Cc2ccc([N+](=O)[O-])o2)C(=N)O1 (configuration not stated),"inconclusive [activator, partial curve]",–
O=C1CCC[C@@H]2C[C@@]3(C[C@@H]4CCN1[C@H]24)Nc1cc(Cl)c(Cl)cc1NC3=NCc1ccccc1,"inconclusive [activator, single point]",–
NC(=O)C1(Nc2ccc(Cl)cc2)CCCC1,–,inactive: 1.33%
Fc1ccc(Nc2nc(-c3ccncc3)nc3ccccc23)cc1,"inconclusive [activator, single point]",–
CN(C)C(=O)N1CCC(C(=O)NC2CCCCCCC2)CC1,"inconclusive [activator, full curve]",–
CC(C)(C)OC(=O)NCCCC[C@H](NC(=O)c1[nH]cnc1C(=O)Nc1ccccc1)C(=O)OC(C)(C)C,"inconclusive [activator, single point]",–
CN(C)c1ccc(C2N(C)C(=O)c3ccccc3N2C)cc1 (configuration not stated),"inconclusive [activator, partial curve, poor fit]",–
Cc1ccc(C)c(N2N=C(C(=O)OCc3nnc(-c4cccs4)o3)CCC2=O)c1,–,inactive: -7.31%
O=C1NC(=Nc2ccc(O)cc2)S/C1=C\C=C\c1ccco1,"inconclusive [activator, full curve]",–
O=C1N/C(=C/c2ccc(N3CCOCC3)cc2)C(=O)N1Cc1ccc(F)cc1,"inconclusive [activator, partial curve, poor fit]",–
COc1ccc(C2c3ccc4ccccc4c3Oc3ncn(CCCO)c(=N)c32)cc1 (configuration not stated),"inconclusive [activator, single point]",–
O=C(c1ccccc1Br)N1CCn2c1nc1ccccc12,active: 3.66 µM,–
COc1ccc(-c2cnc(OC(C)(C)C)nc2OC(C)(C)C)cc1OC,"inconclusive [activator, single point]",–
COc1ccc(CCNC(=O)c2cnn3ccccc23)c(OC)c1OC,–,inactive: 4.68%
CCOC(=O)C1CCN(c2ccccc2CN2CCN(c3ccccc3OCC)CC2)CC1,"inconclusive [activator, partial curve, poor fit]",–
CCn1c(C)nc2cc(C(=O)N3N=C(CCOC)CC3(O)C(F)(F)F)ccc21 (configuration not stated),–,inactive: 10%
Cc1ccc(S(=O)(=O)CCC(=O)Nc2nccs2)cc1,–,inactive: 0.202%
CCOC(=O)/C(=N\Nc1cccc(C(F)(F)F)c1)N1CCOCC1,–,inactive: -10.8%
